Experimental findings from the RNAGym collection of RNA variant scans (doi:10.7554/elife.90254) are described below.

B1: LINE1-mini (parent)
chain: GGCAGAGCUCAACACAGCGUGGCAAAGUGGCUGUGGCUAGACUGCC

The source gives no read counts; variants with many changes may rest on few reads.

In the data set the parent is B1. Briefly: self-cleavage, relative activity (ratio to wild type); higher = more cleavage; in vitro, sequencing; the parent is a self-cleaving ribozyme.
Consider GGCAGAGCUCAACACAGCGUGGCAAAGUGGGUGUGGCUUGUCUGCC [C31G A39U A41U], for which the self-cleavage is 0.02.
As for GGCAGAGCUCAACACAGCGUGGCAAAGUGGAUGUGGUUACACUGCC [C31A C37U G40C], the figure is 0.04.
Turning to GGCAGAGCUCAACACAGCGUGGCAAAGUGGGUUUGGCUAGAAUCCA [C31G G33U C42A G44C C46A], the self-cleavage worked out at 0.03.
Turning to GGCAGAGCUCAACACAGCGUGGCAAAGUGGACUCGGCUAGAUGGCC [C31A U32C G33U U34C C42U U43G], the self-cleavage stood at 0.02.
The value for GGCAGAGCUCAACACAGCGUGGCAAAGUGGGUGUGGGUAGACUCCC [C31G C37G G44C] was 0.01; that for GGCAGAGCUCAACACAGCGUGGCAAAGUGGUGGUGGCUAGACAGCU [C31U U32G U43A C46U] was 0.07.
For the variant GGCAGAGCUCAACACAGCGUGGCAAAGUGGGUGUGGCUAUAUUGCC [C31G G40U C42U], the self-cleavage came out at 0.04.
The value for GGCAGAGCUCAACACAGCGUGGCAAAGUGGCAGUGGCUGGACUGCG [U32A A39G C46G] was 0.03.
As for GGCAGAGCUCAACACAGCGUGGCAAAGUGUCUGUGUCUACACUGCC [G30U G36U G40C], the figure is 0.23; as for GGCAGAGCUCAACACAGCGUGGCAAAGUGUCGGUGGCGAGACUGCC [G30U U32G U38G], 0.02.
The value for GGCAGAGCUCAACACAGCGUGGCAAAGUGUCGGUGGCCAGACUGCC [G30U U32G U38C] was 0.02; that for GGCAGAGCUCAACACAGCGUGGCAAAGUGGACGUGGCUAGACUACC [C31A U32C G44A] was 0.02.
GGCAGAGCUCAACACAGCGUGGCAAAGUGUCUGUUCCUAGACUACC [G30U G35U G36C G44A]: the self-cleavage turned out to be 0.02.
The value for GGCAGAGCUCAACACAGCGUGGCAAAGUGGGUGUGGCUGGACUGAC [C31G A39G C45A] was 0.04; that for GGCAGAGCUCAACACAGCGUGGCAAAGUGGGUGUGGUUAGACUGCU [C31G C37U C46U] was 0.05.
With GGCAGAGCUCAACACAGCGUGGCAAAGUGGGUGUGGCUCGACAGAC [C31G A39C U43A C45A], the self-cleavage stood at 0.02.
Consider GGCAGAGCUCAACACAGCGUGGCAAAGUGGAAGUGGCUAGACUGCU [C31A U32A C46U], for which the self-cleavage is 0.02.
The value for GGCAGAGCUCAACACAGCGUGGCAAAGUGGUUCUGGCCAGACUGCC [C31U G33C U38C] was 0; that for GGCAGAGCUCAACACAGCGUGGCAAAGUGGUUAUGGCUAGCCUGCC [C31U G33A A41C] was 0.03; that for GGCAGAGCUCAACACAGCGUGGCAAAGUGUCUGUCCCUAGACUGCC [G30U G35C G36C] was 0.03.
The value for GGCAGAGCUCAACACAGCGUGGCAAAGUGGAUGUUGUCAGACUGCC [C31A G35U C37U U38C] was 0.02; that for GGCAGAGCUCAACACAGCGUGGCAAAGUGUCUGAGGGUAGACUGCC [G30U U34A C37G] was 0.01; that for GGCAGAGCUCAACACAGCGUGGCAAAGUGGGUGUGACUAGACUGGC [C31G G36A C45G] was 0.23.
Consider GGCAGAGCUCAACACAGCGUGGCAAAGUGGUUGCGGCUAGAUUGCC [C31U U34C C42U], for which the self-cleavage worked out at 0.01.
Regarding GGCAGAGCUCAACACAGCGUGGCAAAGUGGGUGUGGUUAGACAUCC [C31G C37U U43A G44U], the self-cleavage worked out at 0.09.
Consider GGCAGAGCUCAACACAGCGUGGCAAAGUGGUUGUGGCGAGACUGGC [C31U U38G C45G], for which the self-cleavage turned out to be 0.05.
On to GGCAGAGCUCAACACAGCGUGGCAAAGUGUCUGUCGCUUGACUGCC [G30U G35C A39U], for which the self-cleavage amounted to 0.03.
Take GGCAGAGCUCAACACAGCGUGGCAAAGUGUCUAUUGGUAGACUGCC [G30U G33A G35U C37G]: the self-cleavage came out at 0.01.
Take GGCAGAGCUCAACACAGCGUGGCAAAGUGGGUAUUGCUAGACUGCC [C31G G33A G35U]: the self-cleavage is 0.03.
Turning to GGCAGAGCUCAACACAGCGUGGCAAAGUGUCGGCGGCUAGACUGCU [G30U U32G U34C C46U], the self-cleavage worked out at 0.09.
For GGCAGAGCUCAACACAGCGUGGCAAAGUGGAUGUGGCUAGACUGUG [C31A C45U C46G], the self-cleavage amounted to 0.06.
The value for GGCAGAGCUCAACACAGCGUGGCAAAGUGGGUCUGGCGAGACUGCC [C31G G33C U38G] was 0.02.
For the variant GGCAGAGCUCAACACAGCGUGGCAAAGUGGUUGUGUCUAGAUUGCU [C31U G36U C42U C46U], the self-cleavage worked out at 0.2.
As for GGCAGAGCUCAACACAGCGUGGCAAAGUGGUUGUGCCUAGACUGAC [C31U G36C C45A], the figure is 0.03; as for GGCAGAGCUCAACACAGCGUGGCAAAGUGGUUGUGGCUUUACUGCC [C31U A39U G40U], 0.01; as for GGCAGAGCUCAACACAGCGUGGCAAAGUGGAGAUGGCUAGACUGCA [C31A U32G G33A C46A], 0.03.
Take GGCAGAGCUCAACACAGCGUGGCAAAGUGGCAGUGGCUGGACUGAC [U32A A39G C45A]: the self-cleavage amounted to 0.01.
As for GGCAGAGCUCAACACAGCGUGGCAAAGUGGCAGUGGAUAGACUGGC [U32A C37A C45G], the figure is 0.02; as for GGCAGAGCUCAACACAGCGUGGCAAAGUGGUUGUAGCUAGACUGCU [C31U G35A C46U], 0.02.
Turning to GGCAGAGCUCAACACAGCGUGGCAAAGUGGAUGUGGCGAUACUGCA [C31A U38G G40U C46A], the self-cleavage was 0.02.
With GGCAGAGCUCAACACAGCGUGGCAAAGUGGUUGUAGCUAGACUGUC [C31U G35A C45U], the self-cleavage amounted to 0.03.
The value for GGCAGAGCUCAACACAGCGUGGCAAAGUGGAUGUGGCUCGUCUGCC [C31A A39C A41U] was 0.03; that for GGCAGAGCUCAACACAGCGUGGCAAAGUGGGAGUGGCUAGACUGUC [C31G U32A C45U] was 0.04.
As for GGCAGAGCUCAACACAGCGUGGCAAAGUGUCUGUGGCUAGACGGCG [G30U U43G C46G], the figure is 0.06; as for GGCAGAGCUCAACACAGCGUGGCAAAGUGGUUGGGGCUAAACUGCC [C31U U34G G40A], 0.01; as for GGCAGAGCUCAACACAGCGUGGCAAAGUGUCUGUGGCUAAACGGCC [G30U G40A U43G], 0.12.
On to GGCAGAGCUCAACACAGCGUGGCAAAGUGGGUGUGUCUAAACUGCC [C31G G36U G40A], for which the self-cleavage is 0.02.
For GGCAGAGCUCAACACAGCGUGGCAAAGUGGAUGCGGCUAGACUGGC [C31A U34C C45G], the self-cleavage is 0.
The value for GGCAGAGCUCAACACAGCGUGGCAAAGUGUCUGUGGCCAGACGGCC [G30U U38C U43G] was 0.49; that for GGCAGAGCUCAACACAGCGUGGCAAAGUGUCUGGGGCUAGACUGGC [G30U U34G C45G] was 0.03; that for GGCAGAGCUCAACACAGCGUGGCAAAGUGGAUGUGGCUAGACUACU [C31A G44A C46U] was 0.04.
On to GGCAGAGCUCAACACAGCGUGGCAAAGUGUCUGGGGCUAUACUGCC [G30U U34G G40U], for which the self-cleavage was 0.
Regarding GGCAGAGCUCAACACAGCGUGGCAAAGUGGUUGUGGCUAGAUUGCU [C31U C42U C46U], the self-cleavage was 0.01.
As for GGCAGAGCUCAACACAGCGUGGCAAAGUGGUUGUGUCUAGACUGAC [C31U G36U C45A], the figure is 0.03.
As for GGCAGAGCUCAACACAGCGUGGCAAAGUGGAUUUGGCUAGAUUGCC [C31A G33U C42U], the figure is 0.02.
The value for GGCAGAGCUCAACACAGCGUGGCAAAGUGGAUGUGGCUACACUGCU [C31A G40C C46U] was 0.02.
